# Measurements from the supplement of paper PMC8728848.
# The list shows a part of the results.
# B1: PX9961V-pdi-562-26-562 (Parabacteroides distasonis) (protein)
# chain: EIFSEITTDNYYQNSNNIYAALVNNYAKAFSTGWSDARYFLQEVTADQLMIPTRGKHGYNGGEYVRLHEHKWTVEENFVYNGWAAPFQGIALCNNTLSDFENLDFSTFKLTEETKNEYIAELRALRVWNYMFLIDFFRHVPIVTDIEEVKAQSTPLEVFNFMESELLAILPDLPKNRGVSRFDQAGVASILVRLYLNAEKWIGISKYDECEQMAQAILDGKYGEYSIDPDYRGPFRSGINGYRSKENIMEFAIKKNYFEASWLYNMWMHYQDRYSLDNDWQGWNGGNLAPSRDLYGNLYQDKLGMPFEKFPDGDIRKKAFRVISNDGDYEGFFLMGTQYKFDYEKGYGFTDEVITGTEEYNGKPLVYVDQVGRFSEGETGLAKGSHVIYGEENTGYRLIKFPWLPQSKDLFQMNSIPEIRLAEIYYSLAECKYRSGDKIGAARLLDVVRKRYYKAEDWSKFSYESNISKLTDDEFVDELGREFIGERHRRIDLIRWNRFSEGAWWDKTPDATNQDVFPIPYRALNANPLLKQTTAGF
# Experiments:
# Test in all cases: glycan array binding signal (z-score within array); higher = stronger binding
# Conditions in all cases: glycan notation: IUPAC condensed, linker removed
# [1] = biological target: Fuc(a1-2)Gal(b1-4)[Fuc(a1-3)]GlcNAc(b1-2)Man(a1-3)[Fuc(a1-2)Gal(b1-4)[Fuc(a1-3)]GlcNAc(b1-2)Man(a1-6)]Man(b1-4)GlcNAc(b1-4)[Fuc(a1-6)]GlcNAc
# In short: (§1)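 The Consortium for Functional Glycomics database supplied 3228 glycan arrays, of which those lacking an available protein sequence were dropped. The binding signal, a within-array Z-score, was averaged across arrays of the same protein sequence and across linkers. Negative scores can be read as non-binding.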
# [2] = biological target: Fuc(a1-2)Gal(b1-4)[Fuc(a1-3)]GlcNAc(b1-2)[Fuc(a1-2)Gal(b1-4)[Fuc(a1-3)]GlcNAc(b1-4)]Man(a1-3)[Fuc(a1-2)Gal(b1-4)[Fuc(a1-3)]GlcNAc(b1-2)Man(a1-6)]Man(b1-4)GlcNAc(b1-4)GlcNAc
# In short: as §1
# [3] = biological target: Fuc(a1-2)Gal(b1-4)[Fuc(a1-3)]GlcNAc(b1-3)Gal(b1-4)[Fuc(a1-3)]GlcNAc
# In short: as §1
# [4] = biological target: Fuc(a1-2)Gal(b1-4)[Fuc(a1-3)]GlcNAc(b1-3)Gal(b1-4)[Fuc(a1-3)]GlcNAc(b1-3)Gal(b1-4)[Fuc(a1-3)]GlcNAc
# In short: as §1
# [5] = biological target: Fuc(a1-2)Gal(b1-4)[Fuc(a1-3)]GlcNAc(b1-3)GalNAc
# In short: as §1
# [6] = biological target: Fuc(a1-2)Gal(b1-4)[Fuc(a1-3)]GlcNAc(b1-3)[Neu5Ac(a2-6)Gal(b1-4)GlcNAc(b1-6)]Gal(b1-4)Glc
# In short: as §1
# [7] = biological target: Fuc(a1-2)Gal3S(b1-4)GlcNAc
# In short: as §1
# [8] = biological target: Fuc(a1-2)Gal6S(b1-3)GlcNAc
# In short: as §1
# [9] = biological target: Fuc(a1-2)Gal6S(b1-3)GlcNAc6S
# In short: as §1
# Fuc(a1-2)Gal6S(b1-4)Glc = biological target: Fuc(a1-2)Gal6S(b1-4)Glc
# In short: as §1
# [10] = biological target: Fuc(a1-2)Gal6S(b1-4)Glc6S
# In short: as §1
# Fuc(a1-2)[Gal(a1-3)]Gal = biological target: Fuc(a1-2)[Gal(a1-3)]Gal
# In short: as §1
# [11] = biological target: Fuc(a1-2)[Gal(a1-3)]Gal(b1-3)GalNAc
# In short: as §1
# [12] = biological target: Fuc(a1-2)[Gal(a1-3)]Gal(b1-3)GalNAc(b1-3)Gal(a1-4)Gal(b1-4)Glc
# In short: as §1
# [13] = biological target: Fuc(a1-2)[Gal(a1-3)]Gal(b1-3)GlcNAc
# In short: as §1
# [14] = biological target: Fuc(a1-2)[Gal(a1-3)]Gal(b1-3)GlcNAc(b1-2)Man(a1-3)[Fuc(a1-2)[Gal(a1-3)]Gal(b1-3)GlcNAc(b1-2)Man(a1-6)]Man(b1-4)GlcNAc(b1-4)GlcNAc
# In short: as §1
# [15] = biological target: Fuc(a1-2)[Gal(a1-3)]Gal(b1-3)GlcNAc(b1-2)Man(a1-3)[Fuc(a1-2)[Gal(a1-3)]Gal(b1-3)GlcNAc(b1-2)Man(a1-6)]Man(b1-4)GlcNAc(b1-4)[Fuc(a1-6)]GlcNAc
# In short: as §1
# [16] = biological target: Fuc(a1-2)[Gal(a1-3)]Gal(b1-3)GlcNAc(b1-3)GalNAc
# In short: as §1
# [17] = biological target: Fuc(a1-2)[Gal(a1-3)]Gal(b1-3)GlcNAc(b1-6)GalNAc
# In short: as §1
# [18] = biological target: Fuc(a1-2)[Gal(a1-3)]Gal(b1-4)Glc
# In short: as §1
# [19] = biological target: Fuc(a1-2)[Gal(a1-3)]Gal(b1-4)GlcNAc
# In short: as §1
# [20] = biological target: Fuc(a1-2)[Gal(a1-3)]Gal(b1-4)GlcNAc(b1-2)Man
# In short: as §1
# [21] = biological target: Fuc(a1-2)[Gal(a1-3)]Gal(b1-4)GlcNAc(b1-2)Man(a1-3)[Fuc(a1-2)[Gal(a1-3)]Gal(b1-4)GlcNAc(b1-2)Man(a1-6)]Man(b1-4)GlcNAc(b1-4)GlcNAc
# In short: as §1
# [22] = biological target: Fuc(a1-2)[Gal(a1-3)]Gal(b1-4)GlcNAc(b1-2)Man(a1-3)[Fuc(a1-2)[Gal(a1-3)]Gal(b1-4)GlcNAc(b1-2)Man(a1-6)]Man(b1-4)GlcNAc(b1-4)[Fuc(a1-6)]GlcNAc
# In short: as §1
# [23] = biological target: Fuc(a1-2)[Gal(a1-3)]Gal(b1-4)GlcNAc(b1-3)GalNAc
# In short: as §1
# [24] = biological target: Fuc(a1-2)[Gal(a1-3)]Gal(b1-4)GlcNAc(b1-3)[Fuc(a1-2)[Gal(a1-3)]Gal(b1-4)GlcNAc(b1-6)]GalNAc
# In short: as §1
# [25] = biological target: Fuc(a1-2)[Gal(a1-3)]Gal(b1-4)GlcNAc(b1-6)GalNAc
# In short: as §1
# [26] = biological target: Fuc(a1-2)[Gal(a1-3)]Gal(b1-4)[Fuc(a1-3)]Glc
# In short: as §1
# [27] = biological target: Fuc(a1-2)[Gal(a1-3)]Gal(b1-4)[Fuc(a1-3)]GlcNAc
# In short: as §1
# [28] = biological target: Fuc(a1-2)[Gal(a1-3)]Gal(b1-4)[Fuc(a1-3)]GlcNAc(b1-3)GalNAc
# In short: as §1
# [29] = biological target: Fuc(a1-2)[Gal(a1-4)]Gal(b1-4)GlcNAc
# In short: as §1
# [30] = biological target: Fuc(a1-2)[GalNAc(a1-3)]Gal
# In short: as §1
# [31] = biological target: Fuc(a1-2)[GalNAc(a1-3)]Gal(b1-3)GalNAc(a1-3)[Fuc(a1-2)]Gal(b1-4)GlcNAc
# In short: as §1
# [32] = biological target: Fuc(a1-2)[GalNAc(a1-3)]Gal(b1-3)GalNAc(b1-3)Gal(a1-4)Gal(b1-4)Glc
# In short: as §1
# [33] = biological target: Fuc(a1-2)[GalNAc(a1-3)]Gal(b1-3)GlcNAc
# In short: as §1
# [34] = biological target: Fuc(a1-2)[GalNAc(a1-3)]Gal(b1-3)GlcNAc(b1-2)Man(a1-3)[Fuc(a1-2)[GalNAc(a1-3)]Gal(b1-3)GlcNAc(b1-2)Man(a1-6)]Man(b1-4)GlcNAc(b1-4)GlcNAc
# In short: as §1
# [35] = biological target: Fuc(a1-2)[GalNAc(a1-3)]Gal(b1-3)GlcNAc(b1-2)Man(a1-3)[Fuc(a1-2)[GalNAc(a1-3)]Gal(b1-3)GlcNAc(b1-2)Man(a1-6)]Man(b1-4)GlcNAc(b1-4)[Fuc(a1-6)]GlcNAc
# In short: as §1
# [36] = biological target: Fuc(a1-2)[GalNAc(a1-3)]Gal(b1-3)GlcNAc(b1-3)GalNAc
# In short: as §1
binder,measurement,setting,value
B1,glycan array binding signal (z-score),[1],-0.343
same,glycan array binding signal (z-score),[2],-0.424
same,glycan array binding signal (z-score),[3],-0.46
same,glycan array binding signal (z-score),[4],-0.163
same,glycan array binding signal (z-score),[5],2.64
same,glycan array binding signal (z-score),[6],-0.55
same,glycan array binding signal (z-score),[7],-0.495
same,glycan array binding signal (z-score),[8],-0.543
same,glycan array binding signal (z-score),[9],0.224
same,glycan array binding signal (z-score),Fuc(a1-2)Gal6S(b1-4)Glc,-0.048
same,glycan array binding signal (z-score),[10],-0.487
same,glycan array binding signal (z-score),Fuc(a1-2)[Gal(a1-3)]Gal,-0.538
same,glycan array binding signal (z-score),[11],-0.584
same,glycan array binding signal (z-score),[12],-0.226
same,glycan array binding signal (z-score),[13],-0.504
same,glycan array binding signal (z-score),[14],-0.108
same,glycan array binding signal (z-score),[15],0.192
same,glycan array binding signal (z-score),[16],-0.468
same,glycan array binding signal (z-score),[17],-0.074
same,glycan array binding signal (z-score),[18],-0.228
same,glycan array binding signal (z-score),[19],-0.677
same,glycan array binding signal (z-score),[20],-0.182
same,glycan array binding signal (z-score),[21],3.45
same,glycan array binding signal (z-score),[22],-0.281
same,glycan array binding signal (z-score),[23],-0.109
same,glycan array binding signal (z-score),[24],0.087
same,glycan array binding signal (z-score),[25],-0.028
same,glycan array binding signal (z-score),[26],-0.549
same,glycan array binding signal (z-score),[27],-0.538
same,glycan array binding signal (z-score),[28],0.893
same,glycan array binding signal (z-score),[29],0.023
same,glycan array binding signal (z-score),[30],-0.527
same,glycan array binding signal (z-score),[31],-0.718
same,glycan array binding signal (z-score),[32],-0.126
same,glycan array binding signal (z-score),[33],-0.105
same,glycan array binding signal (z-score),[34],-0.21
same,glycan array binding signal (z-score),[35],-0.284
same,glycan array binding signal (z-score),[36],0.721
